According to the supplement of paper PMC5499739:
Whole data set: some 16,000 sequences, median “Z-score” near -0.37, cut for the highest 2% near 3.2. Some of the results follow.

These sequences were tested on RBM10 RRM1-ZnF (GST-tagged construct) (assay: RNAcompete 7-mer binding Z-score; higher = stronger binding preference).
Description: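 RNAcompete: 20 pmol GST-tagged RBM10 RNA-binding constructs were incubated with a designed RNA pool of about 241,000 sequences up to 41 nt (1.5 nmol) on glutathione beads for 30 min at 4 °C and washed. Bound RNAs were identified by microarray hybridisation. Each RNA 7-mer is scored by a one-sided Z-score of its enrichment, computed over probes that contain the 7-mer within longer pool sequences.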

Row | Sequence | RNAcompete 7-mer binding Z-score
1 | UGUUACG | -0.353
2 | UGCUGUC | -0.558
3 | UAUACUU | -0.633
4 | CCCAUGC | -0.743
5 | AUGGCGG | 2.03
6 | CUGUCGC | -0.617
7 | UUCGUGC | -0.48
8 | GGAUCAC | 0.17
9 | GCUGUCC | -0.474
10 | UUAACUG | -0.477
11 | CUACCCC | -0.467
12 | GAACCUG | -0.617
13 | CGUGUUC | -0.662
14 | CCCCCUG | -0.376
15 | GUUGGGC | 2.61
16 | GAAGCUC | -0.373
17 | GAACUAU | -0.5
18 | GACAGUA | -0.175
19 | CAUCUCG | -0.62
20 | GAAAUGU | 0.469
21 | AUUUCAA | -0.636
22 | UGGCUGU | 0.128
23 | GACCUUG | -0.743

Row | Sequence | RNAcompete 7-mer binding Z-score
24 | CUAAGCC | -0.802
25 | CUCCUAG | -0.581
26 | UCUAGUU | -0.665
27 | CCCUUUG | -0.886
28 | AUAAUCC | -0.821
29 | GGGAAAC | 2.34
30 | UAAUCGG | 0.267
31 | AGCUAUC | -0.665
32 | UAUAGCG | -0.0285
33 | AUGAGCA | 0.131
34 | GUCGCAA | -0.441
35 | CUUUCAA | -0.925
36 | UGUCGAC | -0.578
37 | GCAAUAG | 0.361
38 | CGAUCUA | -0.737
39 | UUGUGCA | -0.379
40 | CUAUUAG | -0.467
41 | CUAACUA | -0.571
42 | CGUCAUG | -0.321
43 | CGUUCGC | -0.587
44 | UUUUUGC | -0.847
45 | AUCUUCA | -0.746
46 | UGUGGAC | 0.794

Row | Sequence | RNAcompete 7-mer binding Z-score
47 | CUAAUGC | -0.782
48 | AGUUGCU | -0.334
49 | GUCUACG | -0.353
50 | GUCGACU | -0.47
51 | UAAACAA | -0.392
52 | UGGUGCA | 1.25
53 | UCUCCCC | -0.587
54 | UACAAGC | -0.461
55 | UUAACGC | -0.633
56 | ACAUUAC | -0.587
57 | UUGCUAA | -0.62
58 | CUGGCCG | -0.324
59 | AUAUUGC | -0.578
60 | GGGUUGG | 4.64
61 | CGAGUAC | -0.288
62 | AGGCCCG | -0.704
63 | CAUGGCG | 0.205
64 | UUUGAGU | -0.191
65 | CAUCAAC | -0.613
66 | AGUCGGU | 0.842
67 | AAUUAGC | -0.425
68 | ACAACAA | -0.347
69 | GUCGAGC | 0.166

Row | Sequence | RNAcompete 7-mer binding Z-score
70 | GGCAUGA | 1.01
71 | GGAAUGC | 1.44
72 | AACAAUU | -0.568
73 | UGACGAG | 0.339
74 | UCCCCCG | -0.282
75 | GGACCGA | -0.0544
76 | AAAGCCU | -0.85
77 | GAAUACC | -0.477
78 | GUAGCCU | -0.461
79 | CCGAAUA | -0.642
80 | UCCGAAG | -0.37
81 | UUAUUUG | -0.655
82 | GAUUUCC | -0.782
83 | UUUUUCG | -0.711
84 | UGGGUAC | 2.69
85 | GCUGGAA | 0.771
86 | GCAGACU | -0.262
87 | UUCGGGG | 1.72
88 | AAGCUUA | -0.558
89 | UCUUGGG | 0.501
90 | AUGCUAA | -0.5
91 | CAUACUU | -0.763
92 | GAGUUAA | 0.29

Row | Sequence | RNAcompete 7-mer binding Z-score
93 | AGAAUGA | 0.147
94 | GCGCUAC | -0.103
95 | ACGACGA | -0.37
96 | CCCCUCC | -0.259
97 | GGGAUGC | 3.06
98 | GAACUUC | -0.782
99 | CACUUGU | -0.694
100 | AAUAGCC | -0.724
101 | AAUCCUC | -0.678
102 | CCAGUGG | 0.511
103 | UGUGCAG | 0.319
104 | CUACAUG | -0.591
105 | CAGGUUA | 1.07
106 | GUCUCGU | -0.509
107 | UUGCAGU | -0.542
108 | GAGAUAA | 0.508
109 | GCCCCGA | -0.412
110 | CGAUAGC | -0.435
111 | AUUGUUA | -0.188
112 | CUACGUA | -0.513
113 | UUAAUGG | 0.897
114 | GGAACGU | 1.22
115 | UGCUAUG | -0.168

Row | Sequence | RNAcompete 7-mer binding Z-score
116 | AUAUAGG | 1.32
117 | GAAUUGC | -0.0187
118 | AUGCAGU | -0.00246
119 | CAAAUGU | -0.295
120 | GAAGUGU | 1.08
121 | UCACAAA | -0.587
122 | AAGACGA | 0.439
123 | AGCGCGG | 1.1
124 | CGACCCC | -0.496
125 | AGCCUUU | -1
126 | GUACCCU | -0.597
127 | UUUCACC | -0.818
128 | AUUUAAG | -0.298
129 | AUGGCGA | 0.836
130 | UCAGGGU | 1.32
131 | GUGAGGU | 2.9
132 | AUCGGCG | 0.134
133 | CAGUCAC | -0.373
134 | CUGGACC | -0.409
135 | CUGGGGG | 2.28
136 | GCCGUUA | -0.607
137 | UGCCUAC | -0.571
138 | UUCUAUA | -0.61

Row | Sequence | RNAcompete 7-mer binding Z-score
139 | AACGUUU | -0.704
140 | AACUGGA | 0.667
141 | CAUGCCU | -0.883
142 | GAAGGUG | 4.59
143 | ACGUAGU | -0.0285
144 | CUCUAAA | -0.811
145 | CCACCUU | -0.766
146 | GGGCCGU | 0.53
147 | CCUGGGA | 0.309
148 | ACAUUGA | -0.214
149 | GGUUCGU | 0.303
150 | GGCGUCU | -0.0479
151 | CAAAGCU | -0.594
152 | GCGUUUU | -0.529
153 | UCCAGCC | -0.704
154 | UAAAAGC | -0.574
155 | GCUCGCG | -0.412
156 | AUGUAGU | 0.374
157 | AAGCACA | -0.542
158 | UAGGGCC | 0.631
159 | GACAGAA | 0.296
160 | GAACGUG | 0.699
161 | GGCUCGU | -0.0934

Row | Sequence | RNAcompete 7-mer binding Z-score
162 | AGAUUCG | -0.227
163 | CCCCAUA | -0.587
164 | AAAAAAC | -0.457
165 | CUUCGCA | -0.698
166 | CAGAGGC | 0.313
167 | CACUCUC | -0.6
168 | CUCACAU | -0.805
169 | CCACGGA | 0.264
170 | CGACAAG | 0.144
171 | CGUGUAU | -0.0999
172 | GUUCCAC | -0.49
173 | AGAGUCG | 0.29
174 | AAUGUGG | 2.19
175 | AGAACGC | -0.685
176 | CAGGAUU | 0.641
177 | GCAGGGU | 3.43
178 | CAUCGAU | -0.513
179 | GUGUCGC | 0.238
180 | GUUGGCA | 1.01
181 | ACACACU | -0.688
182 | AUCCUGC | -0.792
183 | GUGUGCU | 0.267
184 | AAGACUG | 0.0333
